From PubChem BioAssay (NCI)
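Following 48 hours of exposure in 96-well plates, responses at five concentrations were used to interpolate endpoints linearly. GI50 is the concentration that inhibits growth by half. TGI marks complete inhibition of growth.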

What follows are molecules tested on NCI-H322M lung (assay: NCI anticancer screen, dose series, 48 h).

In order of falling GI50:
1. CO[C@@H]1CSSC1Cn1nc(-c2ccc(Oc3ccccc3)cc2)c2c(N)ncnc21 (stereo partly drawn)  63.8 µM
2. O=C(Nc1ccc(Cl)c(C(F)(F)F)c1)N1CCN(c2cc(-c3cn(-c4ccccc4)nc3-c3cccc(O)c3)ccn2)CC1  5.86 µM
3. Cc1ccc(C2CC(c3ccc(NC(=O)Nc4ccccc4)cc3)=NN2c2ccc(S(C)(=O)=O)cc2)cc1 (stereo not drawn)  3.8 µM
4. CN(CCSSCCN1CCOCC1)C(=O)Oc1cc2c(c3ccccc13)[C@H](CCl)CN2C(=O)c1cc2cc(OCCCN3CCC3)ccc2[nH]1  0.00806 µM

Going from `Cc1ccc(C2CC(c3ccc(NC(=O)Nc4ccccc4)cc3)=NN2c2ccc(S(C)(=O)=O)cc2)cc1` (stereo not drawn) to `O=C(Nc1ccc(Cl)c(C(F)(F)F)c1)N1CCN(c2cc(-c3cn(-c4ccccc4)nc3-c3cccc(O)c3)ccn2)CC1`, the TGI rises from 14.7 µM to greater than 22 µM.

First: CO[C@@H]1CSSC1Cn1nc(-c2ccc(Oc3ccccc3)cc2)c2c(N)ncnc21 (stereo partly drawn)
Second: CN(CCSSCCN1CCOCC1)C(=O)Oc1cc2c(c3ccccc13)[C@H](CCl)CN2C(=O)c1cc2cc(OCCCN3CCC3)ccc2[nH]1
The TGI of the first is higher: greater than 100 µM for the first, 0.0762 µM for the second.
